± gives the standard deviation of the averaged measurements. Some of the results follow.

The test system of this assay is PfAP2-EXP AP2 domain (GST-tagged). As to the kind of experiment: gcPBM binding intensity (ln(normalized median fluorescence intensity)); higher = stronger DNA binding. The method in brief:
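For binding intensity, the highest Masliner-normalised natural-log median intensity across replicate spots of either probe orientation was taken. Protein bound to the array was stained with Alexa488 anti-GST antibody and scanned at 488 nm. The protein, GST-tagged P. falciparum DNA-binding domains from E. coli at about 25 μg on average, had been applied for 1 h to an Agilent 4 × 180k array of primer-extended double-stranded 36-bp intergenic genomic probes and negative controls.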
For the sequence “CTGTATAAAACCAATGCATGTAAATATATTAATATA [TGCATGCA_site511]”, the “gcPBM binding intensity (ln)” value came to 9.1 ± 0.42.

As for “AAAATATATATAAATGCATGCATAATGAAATATATA [TGCATGCA_site39]”, the “gcPBM binding intensity (ln)” value was determined as 9.95 ± 0.21.

Turning to “TTTTAAAAAACAAACACACACGTAGAAAAAAAAAAA [CACACA_site4608]”, the “gcPBM binding intensity (ln)” value was 8.85 ± 0.44.

As for “GAGAAGACATTACACAGTACCCAGTAACTCTACGGA [XGTACX_site2000]”, the “gcPBM binding intensity (ln)” value is 8.32 ± 0.39.

In the case of “AAATTGGGGCTTGTTACACACTTAGTGCGAGTTCTA [CACACA_site582]”, the “gcPBM binding intensity (ln)” value came out at 8.61 ± 0.35.

Turning to “GATTATTATGTCCATGCATGTTAATATATATTAATT [TGCATGCA_site837]”, the “gcPBM binding intensity (ln)” value was 9.14 ± 0.38.

In the case of “AAAAAAAAAAAAAAAAAAAAAAAAAAAAAAACATAT [GTGCAC_negctrl_site580]”, the “gcPBM binding intensity (ln)” value amounted to 9.21 ± 0.19.

“ATGAATAATTAATGATGTACTTAAAAAAAAAAATAT [XGTACX_site6346]”: the “gcPBM binding intensity (ln)” value was 8.48 ± 0.42.

Take “GTTAATATCTTGAACAGTACTCTAAATATCTACATA [XGTACX_site5358]”: the “gcPBM binding intensity (ln)” value was 8.39 ± 0.48.

With “ATATATTATATTGAATGTACATATATATATTATATA [XGTACX_site8445]”, the “gcPBM binding intensity (ln)” value is 8.35 ± 0.33.

Consider TTACAATAAATTATAGTGCAATATTTTATTTAATAT, for which the “gcPBM binding intensity (ln)” value stood at 8.565 ± 0.021.

For “TAGCCCATATGGAATACACACTGAAAATAAAAAAAG [CACACA_site5799]”, the “gcPBM binding intensity (ln)” value was found to be 8.74 ± 0.7.

With “TGCTATAATTTATATACACACAAATATATACACATA [CACACA_site9356]”, the “gcPBM binding intensity (ln)” value was 8.32 ± 0.33.

Take “GATAATAATAAACAACCACACACAAAAAAACAAAAA [CACACA_site9074]”: the “gcPBM binding intensity (ln)” value amounted to 8.68 ± 0.64.

Consider “TTCAAATTTCCACATACACACCTTGTAGATCTATAT [CACACA_site6270]”, for which the “gcPBM binding intensity (ln)” value was found to be 8.78 ± 0.53.

As to “CAATGTTGTACATACACACACACAAAAAAAAAATAA [CACACA_site2407]”, the “gcPBM binding intensity (ln)” value was found to be 8.57 ± 0.47.

With “ATAAAAAAACACACTCGTACACACATATTTTCTTTC [XGTACX_site6565]”, the “gcPBM binding intensity (ln)” value is 8.69 ± 0.41.

On to “TTTATATTATTAGAAACACACATTAGATTAAAATTA [CACACA_site3286]”, for which the “gcPBM binding intensity (ln)” value amounted to 8.2 ± 0.47.

With “TATTTAATTACATGAACACACATTATATATTTTTAA [CACACA_site5615]”, the “gcPBM binding intensity (ln)” value worked out at 8.23 ± 0.35.

Regarding “TATATATATATGTGCACACCAATTGTATGTAATATA [CACACA_site3889]”, the “gcPBM binding intensity (ln)” value amounted to 10.04 ± 0.092.

Turning to “ATATAACACATTAGTTGTACTATTTTTAATTGGTGA [XGTACX_site961]”, the “gcPBM binding intensity (ln)” value amounted to 8.33 ± 0.33.

Turning to “ACTACATAATATTAACGTACATATTATAATACTTGC [XGTACX_site954]”, the “gcPBM binding intensity (ln)” value was found to be 8.79 ± 0.34.

Consider “TACATAATAACATGTACACACATTCTTCTATAAATG [CACACA_site4061]”, for which the “gcPBM binding intensity (ln)” value turned out to be 8.69 ± 0.23.

On to “CATTAAAAAGAAAGTTCACACACATATATATGACGG [CACACA_site8836]”, for which the “gcPBM binding intensity (ln)” value was 8.84 ± 0.57.

“ACATAATAAAAATGACGTACAATTTTTTTTTTTCAT [XGTACX_site8340]”: the “gcPBM binding intensity (ln)” value is 8.29 ± 0.3.

For the origin of these results see the supplement of paper PMC11417369.
